# Results from the supplement of paper PMC11417369.
# Some of the results follow.
# Test system: PfHDP1 homeodomain (GST-tagged)
# Experiment: gcPBM binding intensity (ln(normalized median fluorescence intensity)); higher = stronger DNA binding
# Outline: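 Probes on an Agilent 4 × 180k array were primer-extended, double-stranded and 36 bp long, taken from intergenic genomic regions, with negative controls added. GST-tagged P. falciparum DNA-binding domains from E. coli, about 25 μg on average, were applied to the array for 1 h in 1× PBS containing 1% milk, 0.2 mg/ml BSA, 0.5% salmon testes DNA and 0.03% Triton X-100. Binding intensity, obtained after Alexa488 anti-GST antibody detection and a 488 nm scan, is the highest Masliner-normalised natural-log median intensity across replicate spots of either probe orientation.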
row,Sequence,gcPBM binding intensity (ln)
1,ATATTTATTTGTTAGTGTACATACATATATATATAT [XGTACX_site1347],9.11
2,AAATAATTTACTTAATGTACATATATATATATATAT [XGTACX_site8594],9.2
3,ATGTATGTTTGTTATGCACACAAATGCATCTTATTT [CACACA_site8861],10.3
4,ATTATGTATACATAAACACACATATATATAAAAAAA [CACACA_site262],7.09
5,AAGCACAAAAAATACACACACAAAAAATAAAAAAAG [CACACA_site1840],6.82
6,TATATATATCTGTACACACACACATATAAATAAATA [CACACA_site4405],6.97
7,GAGAAATGGGGACACACACACATATTATATATATAT [CACACA_site4943],8.53
8,ATATAAATATATGTATGTACGCATGTATGTATCTAT [XGTACX_site3290],6.65
9,TATATGCATAATAACTGTACACAAATTGGGGTTGAT [XGTACX_site459],7.32
10,TTATTCTGACAGAATTGTACTAATGTCTTTAAAAAA [XGTACX_site1256],6.19
11,TGTGCCTATAAATTAACACACAGAAATATATAGAGA [CACACA_site818],6.57
12,TATTTGTTTGTTCGGGTGCTTACATATATTCTTATA [GTGCAC_site9972],7.08
13,TTAATTAGAAATCATACACACATATAAATAAATATA [CACACA_site6225],6.47
14,AAATTAAGTATATATTGTACACATAATATGATTGTA [XGTACX_site3083],6.19
15,TTATTTTCATATAGGTGTACATAAAAATATTCTTAT [XGTACX_site8861],6.46
16,TAAGTTTATTGAAATTGTACAAACATAAATGTAAAA [XGTACX_site162],6.75
17,TTATATTTTTTTTTTTCACACACATTTATATTGTAT [CACACA_site9025],6.69
18,TATACTAAGAAGTATTTACACACCAACAAGGCGAAA [CACACA_site8963],6.32
19,ATGTTCATTATATGCACACATATATATAAATGTAAT [CACACA_site2908],10.2
20,TATCATAAAAAATATACACACAAAGGATATATATAT [CACACA_site1571],8.18
21,TATATATATTTTATATGTACGTATGGAACAATATGA [XGTACX_site8167],6.77
22,TTTTCTATGCTAAACACACTCATTGTTACAAGTTTT [CACACA_site5531],6.78
23,TTATTTATTTTTTATACACACAATTATCATTTTAAG [CACACA_site22],6.82

row,Sequence,gcPBM binding intensity (ln)
1,TGTTGTAAATTAAAGACATGCACGTGAGAAAATATA [TGCATGCA_site285],11
2,TTTTCAATTAATAATACACACATGTATTTATTATTA [CACACA_site5774],6.67
3,AATTATATACATAAGTGTACATAATATATAAACATA [XGTACX_site793],6.28
4,ATATAAAAAAGAGGGAGTACTTGTAACAAAATAATA [XGTACX_site8679],6.84
5,GTACAGATGTAGTATGCATGTAATTATATATAAATT [TGCATGCA_site292],6.91
6,ACATGTTCATAATTTTGTACATATTTTTATGAACAT [XGTACX_site3976],6.82
7,ACGTAGTAGGTATTATGTACATATTTATAAGTATAA [XGTACX_site7336],6.61
8,ACATACGAAAATTGGAAGGATAGATAAAAAGAAAAT [CACACA_negctrl_site51],7.1
9,TAACTACTAGAAAAAACACACAAAAAGTAAATATAT [CACACA_site2740],6.81
10,TTCCCATGTAATATTAAACACACACCCATATAACAC [CACACA_site7905],7.22
11,ATTCTAATTACATATACACACAAAGGTTCATAACAA [CACACA_site3076],6.81
12,TATATAAATGTATACACACACATATAAATATAAATA [CACACA_site6751],6.66
13,ATAAACAGATCATATACATGCATATATGTAGAATAA [TGCATGCA_site157],6.34
14,TGATTTTTTTTTTTTTTTTTTTTTTTTTTAGTTTGC [CACACA_negctrl_site1057],5.74
15,TGTTTAACATTTATATGTACATATATTCACATATTA [XGTACX_site342],6.8
16,TACCAAATCACCCCTTGTACCCATTTTAAAATTTTC [XGTACX_site396],6.82
17,TAAAATATAAGACACACACACATATATTTATATATC [CACACA_site6248],6.9
18,TCTAAACAAATTAATAAAATAAGTATTCAAAATTAT [CACACA_negctrl_site731],6.16
19,AATATTTATTTTTTTGCACACATATTTTACATTTTA [CACACA_site3182],10.3
20,GTAAAATTTCGGATTTGTACACATGGCTATGAAAAA [XGTACX_site939],6.57
21,TCCCATAATATTAGTAGTACTATTAATATTTTCAGG [XGTACX_site4925],6.25
22,TTATGTTATAAATACACACACAAAAGAAAAAAAAAA [CACACA_site7414],6.79
23,TTCTCTATAAATGCTGCACACACATTTAATTATTTA [CACACA_site8828],8.06

row,Sequence,gcPBM binding intensity (ln)
1,ATTTCTTTTTTTTCTTGTACACATATTAAATTTATG [XGTACX_site734],7.23
2,AAAAAGCAGGATTATACACACAAATATTTATATGTT [CACACA_site6634],6.29
3,GCGTAGTTCGGAAGGGTGCTTTTTTGTTAATAAAAA [GTGCAC_site9592],6.13
4,TATAAACAGACGAAAACACACATATGTAAATATATA [CACACA_site4428],6.82
5,ATAAAAATAATATCATGTACATATGTGTATTGTATT [XGTACX_site1768],6.89
6,TACAAAAAGTTATACACACACGTACCTATAAATAGA [CACACA_site6571],6.57
7,CAGACCTCTTTGTCATGTACATAAAAAAATAAAGAA [XGTACX_site7887],6.62
8,TATTTCTTTTGGTTGGTGCATAAAATAATACAATAT [GTGCAC_site9916],10.5
9,ATTTGCTTTTATTTTACACACTTGCTCCTGTTGTAC [CACACA_site1088],7.81
10,AAAAAAAAATATATTGCACACCTCTCAATAAAAAAA [CACACA_site172],9.63
11,ACGAATTAAATGGATTAATATATATATGTATATTTA [CACACA_negctrl_site1512],6.16
12,CGCAACACTATTTGGGTGCTCTTCAAAAAAAAAAAA [GTGCAC_site9598],5.92
13,TTAAATACTTTTCGAAGTACATTATATATATAATAT [XGTACX_site7530],6.26
14,AGAATATATATAATAGTGCAATGTACAATGAACAAA [GTGCAC_site9577],8.58
15,TCCATTCTATTTTTTACACACGTATGTAAATATTAT [CACACA_site2686],6.9
16,ACTTTTTAATAATAATAATTATATATATATATATAT [TGCATGCA_negctrl_site459],9.14
17,ATATATATTTAATTTACACACAAAAAAAATTGTTGG [CACACA_site961],6.65
18,TATAAGAAAATAATGTGTACTAAATAATAAATGCAT [XGTACX_site1204],6.71
19,CCACATGAGATGATTACACACATATAAATATTTACA [CACACA_site6222],6.6
20,CGACTTTTAAAATATACACACATATATATATATATA [CACACA_site825],9.43
21,ATAAATGAAGATAAATTAAAAAAAAAAAAAAAAAAA [CACACA_negctrl_site992],6.15
22,ATAACATACATAACAACACACAATATTTATATGTAT [CACACA_site210],6.61
23,GAATGTATTCATAAATGTACTTATAATATTATAATA [XGTACX_site3466],6.58

row,Sequence,gcPBM binding intensity (ln)
1,AATACATAAATATTTTGTACATATTATATAAAATAT [XGTACX_site1627],6.64
2,CTTGTACCTAGAAATACACACAATTATATAACTTAT [CACACA_site2838],6.57
3,ATGAAAAAAAAAAAAAAAAAAAAAAAAAAAAAAAAA [CACACA_negctrl_site1405],5.99
4,GTTTATCACAGCCACGCACACATAATATCTGTATAT [CACACA_site5929],7.11
5,GATTATTAATAGTAACGTACATATGTTATAAAATAT [XGTACX_site5277],6.61
6,CTTATATTGTACAGTACACACCTTTATAATGTTATT [CACACA_site4280],7.11
7,TAGTAAAAACCAAAATGTACATGTGCCATTTTTTTA [XGTACX_site2630],6.15
8,AAATTCCACGAACACACACACATATAAATAAATAAA [CACACA_site6697],6.63
9,TATATTATACTAAGAAGTACAATATTTTTATTGTAA [XGTACX_site2810],5.85
10,TATAGTATTCTAAATGCATGTAAATTATGTATATAT [TGCATGCA_site931],6.46
11,ACTAATATGTATATATATATATATATATATATATAT [CACACA_negctrl_site141],9.37
12,TACATATTTAAATACTGTACTCAAAAGAATTGTGCA [XGTACX_site2250],6.31
13,ATCAAAAAAAAAAAAAGTACACAAAATTTTTTATTA [XGTACX_site7986],5.96
14,AAGGTTTAAAATTACTGTACAAATATAAATAAATAT [XGTACX_site3756],6.51
15,ATAATGAACAAAGTAGTGCACTTTCCTTATCTTTTC,10.7
16,TATATGTGTGTTATATGTACTTATATATATATATAT [XGTACX_site5570],9.21
17,TTATATATTTCTACTCATATTACAATGTGAGAAATA [CACACA_negctrl_site873],6.21
18,TAGATATATAATTTTTGTACGTAGTCGAATCTCAGA [XGTACX_site765],6.14
19,AACATTAAAAGGGATACACACATATAAATAAATAAT [CACACA_site489],6.83
20,CTCAACAAAATATGAGTGCATTGTTATTACATATAT,8.08
